# This is one part of the list.
# Target: T1, OsWOX13 (Oryza sativa, UniProt Q5QMM3 1-267)
# T1 sequence: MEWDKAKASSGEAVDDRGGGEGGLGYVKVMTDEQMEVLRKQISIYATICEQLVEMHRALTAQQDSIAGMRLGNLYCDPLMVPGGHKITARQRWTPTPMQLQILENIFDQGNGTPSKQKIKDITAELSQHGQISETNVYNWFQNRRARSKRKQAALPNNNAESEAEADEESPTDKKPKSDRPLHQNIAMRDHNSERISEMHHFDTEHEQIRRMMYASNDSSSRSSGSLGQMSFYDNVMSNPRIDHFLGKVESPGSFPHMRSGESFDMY
# Test: protein-binding microarray (RPBM); PBS, 2% BSA, 51.3 ng/ul salmon testes DNA, 50 uM zinc acetate, 200 nM TF, 25 C, 1 h; high values mean tight binding
# Conditions: protein: recombinant; tags: N-terminal polyhistidine and DsRed monomer fusion (pET32a); label: CyDye5-dUTP incorporated in the synthesized complementary strand; 3' TTTTT single-stranded linker to array surface; dsDNA, one strand shown
# Summary of the method: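 The binding signal for each feature is its fluorescence intensity in arbitrary units. An Axon 4000B scanner was used to read a custom Agilent array that had been made double-stranded with Cy5-dUTP primer extension, blocked with 2% BSA, incubated at 25 °C for 1 h with 200 nM protein in PBS, 2% BSA, salmon testes DNA and 50 µM zinc acetate, and washed. The protein was an N-terminal polyhistidine–DsRed transcription factor fusion from E. coli BL21-CodonPlus, purified on Ni–NTA.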
row,Sequence,binding signal
1,AATAACAAAACAAATTACAGATTTTGCCAGAAAACTGCGACGGAGTCACCTAGTGCAG,7780 fluorescence intensity (a.u.)
2,TACTCTGATGGATATATTGGAGGATATGAATTAAGGAGTCCGGAGTCACCTAGTGCAG,6190 fluorescence intensity (a.u.)
3,ATTAATTAAGGAAGGGTTGCATGCATCCGTGGGCCGTATGCGGAGTCACCTAGTGCAG,3630 fluorescence intensity (a.u.)
4,ATTAAACAAATATTAAATTTAGATCCTATAAACGCTCCTACGGAGTCACCTAGTGCAG,10400 fluorescence intensity (a.u.)
5,GGATGTGATGACTGTTTGTCTGTTTGGCTGATATCTCCACCGGAGTCACCTAGTGCAG,7550 fluorescence intensity (a.u.)
6,ACTAGAAACATCATTTAGATTGCATAAGTTCAAAACAACCCGGAGTCACCTAGTGCAG,3160 fluorescence intensity (a.u.)
7,AAGCAAATCTCTAGATAGATAGATAGATGGATGGATGGATCGGAGTCACCTAGTGCAG,10800 fluorescence intensity (a.u.)
8,GTCGGATTAGTGATTATGCTAATCAATGCCACGTAGGATCCGGAGTCACCTAGTGCAG,33300 fluorescence intensity (a.u.)
9,TGTTAGATGATAAAACATGATTAATATTTTATGCGTGACTCGGAGTCACCTAGTGCAG,8120 fluorescence intensity (a.u.)
10,TATAATTGATTATTTTAATTTCTTTTGCTATTAATAGTCACGGAGTCACCTAGTGCAG,64700 fluorescence intensity (a.u.)
11,GTAAATTGGCATTGGTTTGATTTATGTTTGCAATGCAGCGCGGAGTCACCTAGTGCAG,58200 fluorescence intensity (a.u.)
12,GGAAAATTACCGTTCCTGGTTTTAACAGCGTTTGTGCAATCGGAGTCACCTAGTGCAG,7670 fluorescence intensity (a.u.)
13,TAGTGCCAATCATCAACTAAGGCCCAGCCCATACAATCTACGGAGTCACCTAGTGCAG,7940 fluorescence intensity (a.u.)
14,ATGCAGTAATTAATCAATTAACTAATTAACTCACCCCATGCGGAGTCACCTAGTGCAG,47800 fluorescence intensity (a.u.)
15,GATGTGATGTAATTATTGTGTATTAAGGTTTTCGATACAACGGAGTCACCTAGTGCAG,12600 fluorescence intensity (a.u.)
16,GCCATCAACATTGAACTGTTGATTGCACCTCTGCCAAGAACGGAGTCACCTAGTGCAG,4410 fluorescence intensity (a.u.)
17,AAATGACAGCTCAATCAACACGCACCAAACTGAAACGGCCCGGAGTCACCTAGTGCAG,41400 fluorescence intensity (a.u.)
18,ACTAATTGCACATATTGCGACTAATTTGCGAGACGAATCTCGGAGTCACCTAGTGCAG,26300 fluorescence intensity (a.u.)
19,GCTTCAGCAAGTAATTAAATTATTGGCATTTCATCCATGTCGGAGTCACCTAGTGCAG,4820 fluorescence intensity (a.u.)
20,AAAATTTTGACATGTCAAAATTTAGTAAAGTTTTGTTTTGCGGAGTCACCTAGTGCAG,8110 fluorescence intensity (a.u.)
21,TTAATTAAGTCAATAGATTATGTAATAAGTGGATGTAGTTCGGAGTCACCTAGTGCAG,24600 fluorescence intensity (a.u.)

row,Sequence,binding signal
1,AAGCCCAATCAAATCAAGCTGCCTCACTGAAAGTCTGAAACGGAGTCACCTAGTGCAG,4290 fluorescence intensity (a.u.)
2,TTCTAATCAAAATAGTTGGGCTCGTTGCTACCTCTATTTGCGGAGTCACCTAGTGCAG,3920 fluorescence intensity (a.u.)
3,GTCAAAGGATAATTATCTAAACTATCGAGGAGACATTTACCGGAGTCACCTAGTGCAG,6510 fluorescence intensity (a.u.)
4,AATCTTTTAAGCTTAATTATGTCATGATCTGACAATGTGGCGGAGTCACCTAGTGCAG,10200 fluorescence intensity (a.u.)
5,ATTAATCGCTAATTAGGATAATTAATCACTAATTAGTATTCGGAGTCACCTAGTGCAG,43700 fluorescence intensity (a.u.)
6,ATAAACATAATTATTGAAAGCCGTATGAGTAGTTTCTATACGGAGTCACCTAGTGCAG,26400 fluorescence intensity (a.u.)
7,TTCCGAATTTTAATTAATCTTGTATTGGATTCTTATATGGCGGAGTCACCTAGTGCAG,7360 fluorescence intensity (a.u.)
8,AGGAACATGATGATGATGATCGCATCATCAACCTCAAGGGCGGAGTCACCTAGTGCAG,4170 fluorescence intensity (a.u.)
9,CAATCTGATTATTTTCTAATTGCATACTCTCTAAATTCGCCGGAGTCACCTAGTGCAG,39900 fluorescence intensity (a.u.)
10,TCACTATTAACTTCTAATCAGTTCAGCCGTCTTTGATCGCCGGAGTCACCTAGTGCAG,11900 fluorescence intensity (a.u.)
11,AGATAAACAGAAACTGAACAAGAGTTTGTCTTCTACCCTGCGGAGTCACCTAGTGCAG,5780 fluorescence intensity (a.u.)
12,CGATCAATTAATCAAACTTTTCATCGCCACGCCTCACGCACGGAGTCACCTAGTGCAG,12600 fluorescence intensity (a.u.)
13,TTTGCTCATCCTTTCCATTATCATTGCGACGTACTAATTTCGGAGTCACCTAGTGCAG,3270 fluorescence intensity (a.u.)
14,ACCAAAATTTAAAATTTCAACCTTAAATTCAGAGTTGATTCGGAGTCACCTAGTGCAG,8290 fluorescence intensity (a.u.)
15,GGAAAGATTTTAATCAAAAGTGTTTTGGAATGTGACAGTGCGGAGTCACCTAGTGCAG,4240 fluorescence intensity (a.u.)
16,ATTACGTATTATGCGACTTGATTTATTAAAGGTTTTAAGCCGGAGTCACCTAGTGCAG,5340 fluorescence intensity (a.u.)
17,GTAATTACACTGTAACTATAGTGTAACTTGTATGTAACTTCGGAGTCACCTAGTGCAG,5000 fluorescence intensity (a.u.)
18,GCTGTGCGTAATTAGATCATGATAAGCTTGATCATTCTTGCGGAGTCACCTAGTGCAG,7470 fluorescence intensity (a.u.)
19,GAAACAAATTACGGCCCATTTATATATGGATATGGGCCGGCGGAGTCACCTAGTGCAG,9880 fluorescence intensity (a.u.)
20,ACAGATTGCGTGTAAATTACGAGACGAATCTTTTAAACCTCGGAGTCACCTAGTGCAG,21100 fluorescence intensity (a.u.)
21,CTCATTAATTTCAGCTGAAATGAAATAAGTATAATTGGAGCGGAGTCACCTAGTGCAG,14700 fluorescence intensity (a.u.)

# — publication PMC7819943, “Rice protein-binding microarrays: a tool to detect cis-acting elements near promoter regions in rice”
